This is an account of results in patent US20060009506A1, “Drugs for the treatment of neoplastic disorders” (Odyssey Thera, Inc., priority 2004, published 2006).

The subject of one assay is A549 cells. Description: MTT proliferation assay, non-small cell lung carcinoma A549. The class given is cell-based. Conditions: Homo sapiens, A549, 120 h, Tumor Cell: NSCLC (A549), concentrations tested in microM. An excerpt:
(§1) We first screened compounds derived from the known pharmacopeia and from a selected natural product collection using two types of assays: (a) measurements of post-translational modifications of proteins; (b) measurements of protein-protein interactions. For the purpose of measuring post-translational modifications of proteins, we used immunofluorescence methods combined with phospho-specific antibodies. For the purpose of quantifying and localizing protein complexes we used fluorescence methods based on protein-fragment complementation assays (PCA). ‘Hits’ from the initial screens were then tested for antiproliferative activity in up to 5 different human tumor cell lines. […] For drugs with antiproliferative activity in PC-3 cells, dose-response curves were generated to determine the EC50 for antiproliferative activity and additional tumor cell lines were tested to determine the breadth of activity. Methods for assay development, validation, screening, and testing of antiproliferative activity are described below.
Cells were maintained in various media as follows: A549, LoVo and PC-3 (Ham's F12K medium with 2 mM L-glutamine and 1.5 g/L sodium bicarbonate), MIA PaCa-2 (Dulbecco's modified Eagle's medium with 4 mM L-glutamine and 4.5 g/L glucose), U87-MG (MEM+Earle's BSS). Medium for each cell line was supplemented with 10% FBS and […] Penecillin/Streptomycin. All cells were grown in incubators set at 37° C., 5% CO2. Thiazolyl Blue Tetrazolium Bromide (MTT) based proliferation assays were performed to assess the anti-proliferative activities of the compounds on these cells. Cells were seeded in 96 well plates at a density of 750 cells/well 24 hours prior to compound treatment. The cells were incubated with varying concentrations of compounds for 120 hours. […] Drug treatment was performed in 5 replicate wells. Background absorbance was established by wells containing medium but no cells. Vehicle (DMSO) only was used as control. MTT (Sigma-Aldrich, St. Louis, Mo.) was added to each well at a final concentration of 0.5 mg/ml. […]
For orientation: Tetrazolium assays rely on reduction of a dye to a coloured formazan, in cell work by metabolically active cells.

The test system of another assay is LoVo cells. Description: MTT proliferation assay, colon adenocarcinoma LoVo. The class given is cell-based. The note with it: Homo sapiens, Tumor Cell: Colon (LoVo), 120 hours, concentrations tested in microM.
From the text: as §1
(§2) Cells were maintained in various media as follows: A549, LoVo and PC-3 (Ham's F12K medium with 2 mM L-glutamine and 1.5 g/L sodium bicarbonate), MIA PaCa-2 (Dulbecco's modified Eagle's medium with 4 mM L-glutamine and 4.5 g/L glucose), U87-MG (MEM+Earle's BSS). […] Background absorbance was established by wells containing medium but no cells. […]

The test system of another assay is MIA PaCa-2 cells. Description: MTT proliferation assay, pancreatic carcinoma MIA PaCa-2. It is filed as cell-based. The note with it: Homo sapiens, MIA PaCa-2, 120 h, Tumor Cell: Pancreatic (MIA PaCa-2), concentrations tested in microM.
From the text: as §1, §2

The test system of another assay is PC-3 cells. Description: MTT proliferation assay, prostate adenocarcinoma PC-3. It is filed as cell-based. Conditions: Homo sapiens, Tumor Cell: Prostate (PC-3), 120 hours, concentrations tested in microM.
From the text: as §1, §2

The next assay deals with U-87 MG cells. Kind of assay: MTT proliferation assay, glioblastoma U-87 MG. It is filed as cell-based. Conditions: Homo sapiens, Tumor Cell: Glioblastoma (U-87 MG), 120 hours, concentrations tested in microM.
From the text: as §1, §2

The next assay relates to cancer pathways. Description: Screening of cancer pathways in human cells (PCA and phospho-immunofluorescence). It is filed as cell-based. The note with it: cancer pathway in which the drug was active; screened at 10 micromolar, HEK293 cells.
From the text: as §1, with “Methods for assay development, validation, screening, and testing of antiproliferative activity are described below.” left out
Immunofluorescence was performed on drug-treated cells using antibodies that specifically recognize phosphorylated forms of key signaling proteins. […] Background fluorescence due to nonspecific binding by the secondary antibody was established with the use of cells that were incubated with BSA/PBS and without primary antibodies. Fluorescence intensities were quantitated using Image J-based image analysis algorithm as described below. […]

In the next assay the test system is cancer cells. Kind of assay: Antiproliferative activity against cancer cells (cell line not stated). The class given is cell-based, human. The note with it: general statement. An excerpt:
We first screened compounds derived from the known pharmacopeia and from a selected natural product collection using two types of assays: (a) measurements of post-translational modifications of proteins; (b) measurements of protein-protein interactions. For the purpose of measuring post-translational modifications of proteins, we used immunofluorescence methods combined with phospho-specific antibodies. For the purpose of quantifying and localizing protein complexes we used fluorescence methods based on protein-fragment complementation assays (PCA). ‘Hits’ from the initial screens were then tested for antiproliferative activity in up to 5 different human tumor cell lines. […]
Cells were maintained in various media as follows: A549, LoVo and PC-3 (Ham's F12K medium with 2 mM L-glutamine and 1.5 g/L sodium bicarbonate), MIA PaCa-2 (Dulbecco's modified Eagle's medium with 4 mM L-glutamine and 4.5 g/L glucose), U87-MG (MEM+Earle's BSS). […] Background absorbance was established by wells containing medium but no cells. […] Mean absorbance values were calculated from 5 replicate wells of each drug treatment following subtraction of background absorbance from blank samples and plotted as a percentage of control.

As a reminder, the IC50 is the midpoint of a concentration-inhibition curve. A high value points to lower potency. Regarding `C(=C\c1ccccc1)/CN1CCN(C(c2ccccc2)c2ccccc2)CC1` [Cinnarizine], the IC50 was 5.71 µM with A549 cells; 7.14 µM in the assay on LoVo cells; greater than 40 µM with MIA PaCa-2 cells; 10.5 µM with PC-3 cells; greater than 40 µM in the assay on U-87 MG cells. In addition, in the assay on cancer pathways, the “Pathway Activity” value is “apoptosis”. In addition, in the assay on cancer cells, the “Antiproliferative activity against cancer cells” value is “substantial antiproliferative activity”.

In the assay with A549 cells, `CCN(CC)CCOc1ccc(C(=C(Cl)c2ccccc2)c2ccccc2)cc1` [Clomiphene] displayed an IC50 of 8.35 µM.

For `Fc1ccc(C(c2ccc(F)cc2)N2CCN(C/C=C/c3ccccc3)CC2)cc1` [Flunarizine], the half-inhibitory concentration (IC50) with A549 cells came out at 18.2 µM; in the assay on MIA PaCa-2 cells it was 22.5 µM.
